Results reported in PubChem BioAssay AID485364 (National Center for Advancing Translational Sciences (NCATS), 2010).
Among all 360,000 compounds or so, about 11,000 (3.1%) were called active. This list was built around the results that the source calls inconclusive (neither active nor inactive); the mix of calls is not that of the screen. The call rests on the fitted dose curve; in most records, active means well fitted inhibition curve with a large enough effect; inconclusive means small, poorly fitted or top-dose-only effect; inactive means no such curve, though single readings can be large or run the other way. Potencies of inconclusive entries are left out as doubtful fits.

Target: Schistosoma mansoni thioredoxin glutathione reductase (TGR) (UniProt Q962Y6)
Test: qHTS Assay for the Inhibitors of Schistosoma Mansoni Peroxiredoxins; further: nearly all actives have a fitted effect of over 60% in size
Conditions: purified TGR, DTNB reduction, TNB absorbance 405 nm; activity change, negative = inhibition: at 114 µM (top of the series) unless noted
Outline: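 Kinetic colorimetric format: TGR-catalysed, NADPH-driven DTNB reduction monitored via TNB absorbance. Enzyme dispensed at 20 nM; compound exposure 15 min at room temperature before reaction start.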
On the % scale 0 is the no-effect control and ±100 the full control effect; potency means the concentration at half of the fitted maximal effect; tags describe the fitted curve by direction and shape.

Row | Compound | Potency | activity change, negative = inhibition
1 | COC(Cc1n[nH]c(=S)n1-c1ccc(Cl)cc1)OC | inconclusive [inhibitor, full curve, poor fit] | –
2 | CCOC(=O)c1c2c(c(=S)n(-c3ccccc3)c1N)CCC2 | inconclusive [inhibitor, partial curve] | –
3 | O=C(NCC(=O)N1CCC2(CC1)NCCc1[nH]cnc12)c1ccccc1F | inconclusive [inhibitor, full curve, poor fit] | –
4 | Cc1cc(-c2n[nH]c(=S)n2/N=C/c2cccc([N+](=O)[O-])c2)n[nH]1 | inconclusive [inhibitor, full curve, poor fit] | –
5 | Cc1cc(-c2ccccc2)n(-c2ccccc2)n1 | inconclusive [inhibitor, single point] | –
6 | Cc1noc(C)c1CS(=O)(=O)Cc1ccc(Cl)cc1 | inconclusive [inhibitor, partial curve] | –
7 | Cn1c(=O)c2c(nc(N3CCCCC3)n2CCSc2nc3ccccc3s2)n(C)c1=O | – | inactive: 9.43%
8 | COc1ccc(C(O)(CCN2CCOCC2)c2ccccc2)cc1 (stereo not drawn) | inconclusive [inhibitor, single point] | –
9 | COc1ccccc1OC1=NS(=O)(=O)c2ccccc21 | inconclusive [inhibitor, partial curve] | –
10 | CCc1ccccc1S(=O)(=O)Cc1ccc(C(=O)N2CCN(c3ccccn3)CC2)o1 | inconclusive [inhibitor, partial curve] | –
11 | CCN(CC#CCC(O)(c1ccccc1)C1CCCC1)C(C)C (stereo not drawn) | – | inactive: -1.21%
12 | CCC(=O)N/N=C/c1ccc(-c2ccc(Cl)cc2)o1 | inconclusive [inhibitor, partial curve] | –
13 | COc1ccccc1NS(=O)(=O)c1cccc(C(=O)N/N=C/c2c(CO)cnc(C)c2O)c1 | – | inactive: -18.9%
14 | CC(=O)Nc1ccc(S(=O)(=O)Nc2nc3cc4c(cc3nc2Cl)OCCO4)cc1 | inconclusive [inhibitor, partial curve] | –
15 | O=C(Nc1ccc(F)cc1)C(=O)c1c(O)[nH]c2ccc([N+](=O)[O-])cc12 | inconclusive [inhibitor, full curve] | –
16 | Cc1ccnc(SC2CC(=O)N(c3ccc(F)cc3)C2=O)n1 (stereo not drawn) | inconclusive [inhibitor, partial curve] | –
17 | CCC(=O)NC(=S)Nc1ccccc1C(=O)OC | inconclusive [inhibitor, partial curve] | –
18 | CCOc1ccc(NC(=S)NCc2cccnc2)cc1 | inconclusive [inhibitor, full curve] | –
19 | Cc1cccc(NC(=O)c2cc(=O)[nH]c3ccccc23)c1 | – | inactive: -0.389%
20 | O=S(=O)(c1ccccc1)c1nc(Cc2ccccc2)oc1N1CCOCC1 | active: 2 µM | –
21 | CCC(O)C1CCN(C(=O)c2ccc(OC3CCN(Cc4ccccn4)CC3)cc2)CC1 (stereo not drawn) | inconclusive [inhibitor, partial curve, poor fit] | –
22 | O=C(OCC1CCCO1)c1ccc2c(c1)N(Cc1ccccc1Cl)C(=O)c1ccccc1S2(=O)=O (stereo not drawn) | – | inactive: -4.24%
23 | C/C(N)=C(/C#N)C(=O)COC(=O)CCS(=O)(=O)c1ccccc1 | inconclusive [inhibitor, full curve, poor fit] | –

Row | Compound | Potency | activity change, negative = inhibition
24 | O=C(N/N=C(\CC(=O)c1cccs1)C(F)(F)F)c1cccnc1 | inconclusive [inhibitor, full curve] | –
25 | COc1ccc(OC)c(CN2CCN(C(=O)CCC(=O)c3cccs3)CC2)c1 | inconclusive [inhibitor, partial curve] | –
26 | Cc1ccc(S(=O)(=O)N2CCC(C(=O)Nc3ccccc3N3CCCC3)CC2)c(C)c1 | inconclusive [inhibitor, partial curve] | –
27 | Cc1ccc(C(=O)CSC2=C(C#N)C(c3ccco3)C3=C(CCCC3=O)N2)cc1 (stereo not drawn) | inconclusive [inhibitor, partial curve] | –
28 | CCN1C(=O)C(CC(=O)Nc2ccc(F)cc2)N(Cc2ccco2)C1=S (stereo not drawn) | inconclusive [inhibitor, partial curve] | –
29 | C=CCOc1ccc(C(=O)Nc2ccccc2C(=O)NCc2cccnc2)cc1 | active: 39.8 µM | –
30 | Cn1cnnc1SCC(=O)NC1CCCCC1 | inconclusive [inhibitor, single point] | –
31 | Cn1c(=O)c2c(nc(NCc3ccc4c(c3)OCO4)n2Cc2ccccc2)n(C)c1=O | – | inactive: 2.81%
32 | O=C(NNC(=O)c1ccc(O)c(Cl)c1)c1cccc(S(=O)(=O)N2CCOCC2)c1 | inconclusive [inhibitor, single point] | –
33 | Cc1sc(NC(=O)c2ccco2)c(C(c2cccnc2)N2CCCC2)c1C (stereo not drawn) | inconclusive [inhibitor, full curve] | –
34 | COc1ccc2[nH]cc(C(=O)CCl)c2c1 | active: 2.82 µM | –
35 | O=c1c2ccccc2ncn1Cc1ccco1 | inconclusive [inhibitor, partial curve] | –
36 | COc1cccc2cc(C(=O)CS(=O)(=O)c3ccc(Cl)cc3)c(=O)oc12 | inconclusive [inhibitor, partial curve] | –
37 | O=C(CSc1cn(CC(=O)N2CCOCC2)c2ccccc12)N1CCOCC1 | – | inactive: -4.78%
38 | Cc1cc(C(=O)CNCc2ccco2)c(C)n1-c1ccc(F)cc1 | inconclusive [inhibitor, full curve, poor fit] | –
39 | Cc1ccc(NC(=O)/C=C/c2ccc(C)o2)c(C)c1 | active: 7.94 µM | –
40 | COc1ccccc1-n1nnnc1SCC(=O)Nc1ccc(C)c(N)c1 | – | inactive: 0%
41 | CN1C(N)=NC(=O)/C1=C\c1ccc(Br)cc1 | inconclusive [inhibitor, partial curve] | –
42 | COc1ccc(OC)c2c(C)cc(NCCN3CCOCC3)nc12 | inconclusive [inhibitor, partial curve] | –
43 | CCOC(=O)/C=C/C(=O)Nc1ccc(Oc2ccccc2)cc1 | inconclusive [inhibitor, partial curve] | –
44 | O=c1c2c(-c3ccccc3)ccnc2[nH]n1-c1ccccc1 | inconclusive [inhibitor, full curve, poor fit] | –
45 | CC(C)(C)NC(=S)N1CCC(C(=O)c2ccc(Cl)cc2)CC1 | inconclusive [inhibitor, partial curve] | –
46 | O=C1NCCN(Cc2c(F)cccc2Cl)C1CC(=O)N1CCCO1 (stereo not drawn) | active: 28.2 µM | –

Row | Compound | Potency | activity change, negative = inhibition
47 | COc1ccc(C(=O)NC(NC(=O)c2ccc(OC)c(OC)c2)c2ccccc2F)cc1OC | – | inactive: 0%
48 | COc1ccc(/C=C2\C(=O)ON=C2c2ccccc2)cc1 | inconclusive [inhibitor, partial curve] | –
49 | Cc1cc(/C=C2/NC(=O)N(Cc3ccccc3F)C2=O)c(C)n1-c1ccccn1 | inconclusive [inhibitor, single point] | –
50 | Cc1cc(C)c(NC(=O)CSc2nc3nc(C)cc(C)n3n2)c(C)c1 | – | inactive: -12%
51 | CCC(C)NC(=S)Nc1ccc2nc(N3CCN(CC)CC3)cc(C)c2c1 (stereo not drawn) | inconclusive [inhibitor, partial curve] | –
52 | COc1cccc(NC(=O)CSc2ncnc3c2oc2ccccc23)c1 | inconclusive [inhibitor, partial curve, poor fit] | –
53 | CC1CCN(C(=O)CSc2nnc(CNc3ccc(F)cc3)n2Cc2ccco2)CC1 | inconclusive [inhibitor, partial curve] | –
54 | CN(CC(=O)Nc1ccc(Cl)cc1)C(=O)c1cccc(S(=O)(=O)N2CCN(Cc3ccccc3)CC2)c1 | – | inactive: -6.31%
55 | CCOc1cc(N2CCOCC2)c(OCC)cc1NC(=O)CSc1cccc[n+]1[O-] | inconclusive [inhibitor, partial curve] | –
56 | Cc1nc(/C(N)=N/OC(=O)c2c(-c3ccccc3Cl)noc2C)cs1 | – | inactive: -1.91%
57 | O=C1c2ccccc2NC(c2cccc(F)c2)N1Cc1ccco1 (stereo not drawn) | inconclusive [inhibitor, partial curve] | –
58 | COc1cc(CN2CCCC(C(=O)c3sccc3C)C2)cc(Cl)c1O (stereo not drawn) | inconclusive [inhibitor, partial curve] | –
59 | CN1CCCN(S(=O)(=O)c2ccc3c(c2)OCCO3)CC1 | inconclusive [inhibitor, full curve, poor fit] | –
60 | CSCCC(NC(=O)/C(=C\c1ccco1)NC(=O)c1ccco1)C(=O)O (stereo not drawn) | inconclusive [inhibitor, partial curve] | –
61 | O=S(=O)(Nc1cc(S(=O)(=O)N2CCOCC2)ccc1NCC1CCCO1)c1ccccc1F (stereo not drawn) | inconclusive [inhibitor, single point] | –
62 | C[C@@H](NC(=O)c1[nH]cnc1C(=O)Nc1cccc(Cl)c1)c1ccccc1 | – | inactive: -16.7%
63 | COc1ccc(C(c2nnnn2C2CCCC2)N2CCc3ccccc3C2)cc1OC (stereo not drawn) | inconclusive [inhibitor, partial curve] | –
64 | COc1cc(CN2CCN(CCCc3ccccc3)CC2CCO)cc(OC)c1 (stereo not drawn) | inconclusive [inhibitor, full curve, poor fit] | –
65 | CC(C)(C)OC(=O)c1c(N)n(Cc2ccco2)c2nc3ccccc3nc12 | active: 28.2 µM | –
66 | COC(=O)c1cc(NC(=O)COC(=O)CN2C(=O)C3CC=CCC3C2=O)cc(C(=O)OC)c1 (stereo not drawn) | – | inactive: 2.11%
67 | Cc1cccc(NC(=O)C(=O)NCC2CCCO2)c1 (stereo not drawn) | – | inactive: -23.9%
68 | Cc1oc(-c2ccccc2Cl)nc1CS(=O)(=O)CC(=O)N1CCOCC1 | inconclusive [inhibitor, full curve, poor fit] | –
